Laboratory results: patent US9234216B2, “Variant CBH I polypeptides” (BP Corporation North America Inc., priority 2011, dated 2016)
Changes are numbered by the printed parent chain. In names and notes the source's numbering stands.

Assay: Saccharification of pretreated bagasse by CBHI variants in a cocktail with CBHII and EG
Assay type: biochemical
Settings: for % improvement over WT @ 48 hr: 5% w/v pretreated bagasse, 35° C., pH5.2, CBHI 4 mg/g cellulose; for Dose Reduction: method not described
Protocol: CBHI variants shown in Tables 1 and 5 were assayed under the following conditions: • 5% w/v pretreated bagasse (62.07% cellulose) • 35° C., 300 rpm shaking with 2 BBs per r×n • pH5.2 • 1 mM Sodium Azide • 5 ml total volume • Enzyme Dosing Overview:
• Time point: T=0, 48 hours • Time point (for Point Mutant Recombinants): T=0, 72 hours • % improvement over wt=(% conversion of variant−% conversion of wt)/ • % conversion of wt Results of these assays are shown in Tables 2 and 6. • CBHI variants shown in Table 3 were assayed under the following conditions: […]

[1] = Table 2, (% conversion of variant − % conversion of wt)/% conversion of wt

B1: SEQ ID NO: 1, 2: BD29555 CBH I variant: N222H (protein)
chain: MSALNSFNMYKSALILGSLLATAGAQQIGTYTAETHPSLSWSTCKSGGSCTTNSGAITLDANWRWVHGVNTSTNCYTGNTWNTAICDTDASCAQDCALDGADYSGTYGITTSGNSLRLNFVTGSNVGSRTYLMADNTHYQIFDLLNQEFTFTVDVSHLPCGLNGALYFVTMDADGGVSKYPNNKAGAQYGVGYCDSQCPRDLKFIAGQANVEGWTPSSNNAHTGLGNHGACCAELDIWEANSISEALTPHPCDTPGLSVCTTDACGGTYSSDRYAGTCDPDGCDFNPYRLGVTDFYGSGKTVDTTKPITVVTQFVTDDGTSTGTLSEIRRYYVQNGVVIPQPSSKISGVSGNVINSDFCDAEISTFGETASFSKHGGLAKMGAGMEAGMVLVMSLWDDYSVNMLWLDSTYPTNATGTPGAARGSCPTTSGDPKTVESQSGSSYVTFSDIRVGPFNSTFSGGSSTGGSSTTTASGTTTTKASSTSTSSTSTGTGVAAHWGQCGGQGWTGPTTCASGTTCTVVNPYYSQCL
[1]
  % improvement over WT @ 48 hr: 12.3%

B2: SEQ ID NO: 7, 8: BD29555 CBH I variant: L225Y (protein)
chain: B1 chain with H222N, L225Y
[1]
  % improvement over WT @ 48 hr: 11.4%
Table 2
  Dose Reduction: 0.75X

B3: SEQ ID NO: 5, 6: BD29555 CBH I variant: S217K (protein)
chain: B1 chain with S217K, H222N
[1]
  % improvement over WT @ 48 hr: 13.0%

B4: SEQ ID NO: 9, 10: BD29555 CBH I variant: L225V (protein)
chain: B1 chain with H222N, L225V
[1]
  % improvement over WT @ 48 hr: 13.3%
Table 2
  Dose Reduction: 0.75X

B5: SEQ ID NO: 3, 4: BD29555 CBH I variant: N222E (protein)
chain: B1 chain with H222E
[1]
  % improvement over WT @ 48 hr: 7.2%

B6: SEQ ID 101, 102: BD29555 CBH I entry site variant: Y31L, T32W, F120-VTGSNVG-S128 → F120-VQQGPYSKNVG-S132 (protein)
chain: MSALNSFNMYKSALILGSLLATAGAQQIGTLWAETHPSLSWSTCKSGGSCTTNSGAITLDANWRWVHGVNTSTNCYTGNTWNTAICDTDASCAQDCALDGADYSGTYGITTSGNSLRLNFVQQGPYSKNVGSRTYLMADNTHYQIFDLLNQEFTFTVDVSHLPCGLNGALYFVTMDADGGVSKYPNNKAGAQYGVGYCDSQCPRDLKFIAGQANVEGWTPSSNNANTGLGNHGACCAELDIWEANSISEALTPHPCDTPGLSVCTTDACGGTYSSDRYAGTCDPDGCDFNPYRLGVTDFYGSGKTVDTTKPITVVTQFVTDDGTSTGTLSEIRRYYVQNGVVIPQPSSKISGVSGNVINSDFCDAEISTFGETASFSKHGGLAKMGAGMEAGMVLVMSLWDDYSVNMLWLDSTYPTNATGTPGAARGSCPTTSGDPKTVESQSGSSYVTFSDIRVGPFNSTFSGGSSTGGSSTTTASGTTTTKASSTSTSSTSTGTGVAAHWGQCGGQGWTGPTTCASGTTCTVVNPYYSQCL
Table 6
  % improvement over WT @ 48 hr: 10.9%

B7: SEQ ID 103, 104: BD29555 CBH I entry site variant: T32Q, F120-VTGSNVG-S128 → F120-VTKGSFSSNIG-S132 (protein)
chain: B6 chain with L31Y, W32Q, Q122T, Q123K, P125S, Y126F, K128S, V130I
Table 6
  % improvement over WT @ 48 hr: 15.9%
